Hit rate of the full screen: of about 310,000 compounds, about 11,000 (3.5%) were called active. This list was built around the results that the source calls inconclusive (neither active nor inactive); the mix of calls is not that of the screen. Calls come from the whole dose curve; as a rule, active = well fitted inhibition curve with a large enough effect; inconclusive = small, poorly fitted or top-dose-only effect, or effect the other way; inactive = flat fitted curve, though single readings scatter. Potencies of inconclusive entries are left out as doubtful fits.
assay: VP16 counterscreen qHTS for inhibitors of ROR gamma transcriptional activity; conditions: Drosophila S2 Gal4-VP16 UAS-luciferase, luminescence, 20 h; activity, negative = inhibition: at 53.6 µM (top of the series);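 note: Gal4-VP16 expression switched on by copper sulfate through the metallothionein promoter; nearly all actives have a fitted effect of over 50% in size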
% is set by controls: 0 for no effect and ±100 for the full control effect; potency is the fitted concentration of half-maximal effect; tags give direction and shape of the fitted curve.

Q: For O=C1NN(c2ccccc2)C(=O)/C1=C/c1ccc(Sc2cccc3ccccc23)o1, which Potency is on record?
A: inconclusive [inhibitor, single point]

Q: Which Potency does the source give for CCCCCCc1cc2cc(C(=O)Nc3ccccc3)c(=O)oc2cc1O here?
A: active: 4.47 µM

Q: For O=C1N/C(=C/c2ccc(N3CCOCC3)o2)C(=O)N1c1ccccc1, which Potency is on record?
A: active: 1.58 µM

Q: For O=C(COc1ccc(Br)cc1)N1CCN(c2ccc([N+](=O)[O-])c(N3CCCCC3)c2)CC1, which “activity, negative = inhibition” value is on record?
A: inactive: -18.2%

Q: Which Potency does the source give for CCCOC(=O)c1ccc(NC(=O)C2C3C=CC(O3)C2C(=O)O)cc1 (stereo not drawn) here?
A: inconclusive [inhibitor, single point]

Q: With COc1ccc(CCNC(=O)c2ccc(CNS(=O)(=O)c3ccc(C(C)(C)C)cc3)cc2)cc1OC as the molecule, how does the Potency read?
A: inconclusive [inhibitor, single point]

Q: With CC1CCCCC1NC(=O)CCCCCn1c(=S)[nH]c2ccsc2c1=O (stereo not drawn) as the molecule, how does the Potency read?
A: inconclusive [inhibitor, single point]

Q: Which Potency does the source give for Cc1ccc(-n2nnnc2C(Cl)c2nnnn2-c2ccc(C)cc2)cc1 here?
A: active: 8.91 µM

Q: With CC1(C)CC(=O)/C(=C(\O)Cc2ccccc2)C(=NCCCCCC(=O)O)C1 as the molecule, how does the “activity, negative = inhibition” value read?
A: inactive: -15.7%

Q: Which “activity, negative = inhibition” value does the source give for CC(=O)Nc1ccc(NC(=O)CCC(=O)OCC(=O)c2ccc(F)cc2)cc1 here?
A: inactive: -4.28%

Q: With Cc1c(C)n(CC(O)CNc2ccccc2)c2ccccc12 (stereo not drawn) as the molecule, how does the “activity, negative = inhibition” value read?
A: inactive: -10.7%

Q: For COc1ccc(CNC(=O)Nc2ccc(C)cc2C)cc1, which Potency is on record?
A: inconclusive [inhibitor, single point]

Q: With O=C(CN1CCCCC1)NN(Cc1ccccc1)c1ccccc1 as the molecule, how does the “activity, negative = inhibition” value read?
A: inactive: -13%

Q: For Cc1ccc2c(Cl)c(C(=O)N/N=C/c3cccn3C)sc2c1, which Potency is on record?
A: active: 1.58 µM

Q: For CCOC(=O)c1c(C)[nH]c(N=Nc2ccc(C)cc2)c1C, which Potency is on record?
A: inconclusive [inhibitor, full curve]

Q: Which Potency does the source give for O=C(c1sc2cc(F)ccc2c1Cl)N1CCN(c2ccccc2)CC1 here?
A: inconclusive [activator, single point]

Q: For CC(=O)[C@@H]1[C@H]2[C@H](C(=O)[C@H]3OC[C@@H]2O3)[C@H]2C=Cc3ccccc3N21, which Potency is on record?
A: inconclusive [inhibitor, partial curve]

Q: For COc1ccccc1C(=O)NNC(=O)c1cccc(O)c1, which Potency is on record?
A: inconclusive [inhibitor, partial curve]

Q: For C#CCOCCOCCOCCNc1nc(N2CCOCC2)nc(N2CCN(C(=O)Cn3cc(CCCN=C(N)N)nn3)CC2)n1, which “activity, negative = inhibition” value is on record?
A: inactive: -5.03%

Q: Which “activity, negative = inhibition” value does the source give for CCCC(=O)Nc1ccc(Cl)c(NC(=O)c2cccnc2)c1 here?
A: inactive: -29.5%

Q: For O=C1CCC(=O)N1CCSC(=S)N1CCOCC1, which “activity, negative = inhibition” value is on record?
A: inactive: 4.14%

Q: With CCN(CC)c1ccc(/C=N/NC(=S)NCc2ccc(OC)cc2)cc1 as the molecule, how does the Potency read?
A: active: 1.41 µM

Q: With CCOC(=O)c1ccc(NC(=O)c2nc[nH]c2C(=O)NC2CCN(C(=O)OC(C)(C)C)CC2)cc1 as the molecule, how does the Potency read?
A: inconclusive [inhibitor, single point]

Q: With COc1ccccc1NC(=O)c1c(Nc2ccccc2C)sc(C(=O)Nc2cccc(Cl)c2)c1N as the molecule, how does the Potency read?
A: inconclusive [inhibitor, single point]

Q: For O=C1C(=O)c2ccccc2C(O)=C1c1ccccc1F, which Potency is on record?
A: active: 1.26 µM

Q: Which “activity, negative = inhibition” value does the source give for CCN(Cc1ccncc1)Cc1c(O)ccc2ccccc12 here?
A: inactive: -15.5%

Q: For CNC(=O)[C@H](C)[C@@H]1C[C@@]1(C)[C@@H](NC(=O)OCc1ccccc1)c1ccccc1, which Potency is on record?
A: inactive

Q: With CC(=O)c1ccc(NC(=O)c2c(C)nn(-c3ccccc3)c2Cl)cc1 as the molecule, how does the Potency read?
A: inconclusive [inhibitor, single point]

Q: Which Potency does the source give for Cc1nc(C)c(-c2nnc(-c3ccc(C(C)(C)C)cc3)o2)cc1C(=O)NN here?
A: inconclusive [inhibitor, single point]

Q: For Cc1nn(Cc2ccccc2Cl)c(C)c1NC(=O)c1cc(-c2ccc(F)cc2)on1, which Potency is on record?
A: inconclusive [inhibitor, single point]

Q: For CC1CC2=C(CC1/C=N/NC(N)=S)C(C)(C)CCC2 (stereo not drawn), which Potency is on record?
A: active: 2.82 µM

Q: For C[C@H](NC(=O)c1nc[nH]c1C(=O)N[C@@H](CCCCNC(=O)OC(C)(C)C)C(=O)OC(C)(C)C)c1ccccc1, which Potency is on record?
A: active: 11.2 µM

Q: Which Potency does the source give for CC1CCCN(C(=O)COc2ccc(-c3ccccc3)cc2)C1 (stereo not drawn) here?
A: inconclusive [activator, single point]

Q: For Cc1ccc(N=Nc2ccc(O)cc2)c(Br)c1, which Potency is on record?
A: inconclusive [inhibitor, partial curve]

Q: With CC(=O)Oc1ccc2oc(/C=C/N(C)C)c([N+](=O)[O-])c2c1 as the molecule, how does the “activity, negative = inhibition” value read?
A: inactive: -4.09%

Q: With CCCCOc1ccc(CONS(=O)(=O)c2ccc(NC(C)=O)cc2)cc1Cl as the molecule, how does the “activity, negative = inhibition” value read?
A: inactive: -29.4%

Q: For Nc1[nH]c(N=NC(=O)c2ccc(Cl)cc2)c2ccccc12, which Potency is on record?
A: inconclusive [inhibitor, single point]

Q: Which Potency does the source give for Cc1c(C(=O)NCCSCc2c(F)cccc2Cl)cnn1-c1ccc(F)cc1 here?
A: inconclusive [inhibitor, single point]

Q: With Cc1[nH]cnc1C(=O)N/N=C/c1ccc([N+](=O)[O-])s1 as the molecule, how does the Potency read?
A: inconclusive [inhibitor, partial curve]

Q: For COc1ccc(-c2nnc(SCC(=O)Nc3ccccc3)n2C)cc1, which “activity, negative = inhibition” value is on record?
A: inactive: 3.16%

Q: For Cc1ccc(-c2csc(NC(=O)CCNC(=O)c3ccc(Cl)cc3)n2)cc1, which Potency is on record?
A: inconclusive [inhibitor, partial curve, poor fit]

Q: With O=C(Nc1nccs1)c1ccc([N+](=O)[O-])cc1Cl as the molecule, how does the Potency read?
A: inconclusive [inhibitor, single point]

Q: For CCOC(=O)C1=C(C)N(CC)C(=S)NC1c1ccc(Cl)cc1 (stereo not drawn), which Potency is on record?
A: active: 6.31 µM

Q: For COc1cc(C(=O)Nc2ccc3c(c2)N(C(=O)CCN(C)C)c2ccccc2CC3)cc(OC)c1OC, which “activity, negative = inhibition” value is on record?
A: inactive: 14.5%

Q: Which Potency does the source give for Cc1ccc(/C=C/C(=O)Nc2ccc(Oc3ccccc3)cc2)o1 here?
A: inconclusive [inhibitor, single point]

Q: With C/C(=N\Nc1nccnc1Cl)c1ccc(F)cc1 as the molecule, how does the Potency read?
A: active: 2.82 µM

Q: Which Potency does the source give for Fc1ccc(NC(=S)N/N=C/c2ccc(F)c(F)c2)cc1 here?
A: active: 3.16 µM

Q: For Cc1nc2ccccn2c1-c1csc(NCc2ccco2)n1, which Potency is on record?
A: inconclusive [inhibitor, single point]

From PubChem BioAssay AID2546 (National Center for Advancing Translational Sciences (NCATS), 2010)
